The list shows a part of the results.

This experiment relates to PfAP2-HC AP2 domain (GST-tagged). The experiment is described as follows: gcPBM binding intensity (ln(normalized median fluorescence intensity)); higher = stronger DNA binding. An outline of the steps:
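Using an Agilent 4 × 180k array, primer-extended double-stranded 36-bp intergenic genomic probes and negative controls were exposed for 1 h to GST-fused P. falciparum DNA-binding domains expressed in E. coli. Binding was carried out in 1× PBS with 1% milk, 0.2 mg/ml BSA, 0.5% salmon testes DNA and 0.03% Triton X-100, and protein was detected with Alexa488 anti-GST antibody and a 488 nm scan. Binding intensity is the highest Masliner-normalised natural-log median intensity across replicate spots of either probe orientation.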
For the sequence “TTAAAATATGTAGCTACACACACATAAACAAAATAA [CACACA_site8244]”, the “gcPBM binding intensity (ln)” value was determined as 10.2.

As to “TAATTATAATAATAACGTACATATATAAAATGGTGA [XGTACX_site8434]”, the “gcPBM binding intensity (ln)” value was found to be 9.76.

As to “TTTTTTTTTCTGAATTTATAATTCAAAAATATATAT [CACACA_negctrl_site300]”, the “gcPBM binding intensity (ln)” value stood at 9.22.

Regarding “TGTAGTCTGGAGAAAAGTACACAGTATCTGGTAGCT [XGTACX_site2012]”, the “gcPBM binding intensity (ln)” value came to 9.54.

Consider TATATATATATATAGGTGCTATAATTTATATACACA, for which the “gcPBM binding intensity (ln)” value turned out to be 9.57.

For the sequence “AACATAATATCATATACACACAAAAATATTGAAATA [CACACA_site2160]”, the “gcPBM binding intensity (ln)” value was 10.1.

For “ATAATACCCATTATCTTACAACAAAATGCAAACAAA [CACACA_negctrl_site1037]”, the “gcPBM binding intensity (ln)” value stood at 9.6.

For the sequence “TTATATAACTTTTCTAGTACTTGTATAAATTCCTAC [XGTACX_site3685]”, the “gcPBM binding intensity (ln)” value stood at 9.73.

Turning to “AAAAAAAAAGAAAAACGTACGTTTATTTAATATATA [XGTACX_site4018]”, the “gcPBM binding intensity (ln)” value was 9.7.

With “AAGAACATATTATATACATGCATAATTCGATAGATT [TGCATGCA_site882]”, the “gcPBM binding intensity (ln)” value was found to be 9.7.

“AAAATTAGATTATGCACACACACTTAAAAATAATAA [CACACA_site1975]”: the “gcPBM binding intensity (ln)” value is 10.2.

“ATATATAAGAACATATATATTGGAAATATTGAATTT [XGTACX_negctrl_site121]”: the “gcPBM binding intensity (ln)” value worked out at 9.65.

As for “TAATAATAAAAAATACGTACATATTATTTATATATG [XGTACX_site853]”, the “gcPBM binding intensity (ln)” value is 9.63.

On to “CATTTTATTCTATATGCATGTTAAAAAATGTGTTGA [TGCATGCA_site128]”, for which the “gcPBM binding intensity (ln)” value amounted to 9.49.

For “AATAAAAATATTATATGTACATATTTTAATATATAT [XGTACX_site1259]”, the “gcPBM binding intensity (ln)” value was 9.58.

On to “TTATGGTATAAAAAAATACACACTTATATATATTCT [CACACA_site488]”, for which the “gcPBM binding intensity (ln)” value was 9.72.

Take “TTTTATTTTTTCTATACATGCATGTCCAATTTTCTT [TGCATGCA_site304]”: the “gcPBM binding intensity (ln)” value stood at 10.1.

Take “AAAAAAAAAAAAAACACACATACACGCCCACCCATA [CACACA_site3391]”: the “gcPBM binding intensity (ln)” value worked out at 10.4.

As to “GTTTTTTTATAAAATTTTTATATAATTCTTTTATAA [CACACA_negctrl_site1605]”, the “gcPBM binding intensity (ln)” value amounted to 9.62.

In the case of “TTTATTATATGCACACGTACATATAATATATATATA [XGTACX_site4108]”, the “gcPBM binding intensity (ln)” value came out at 9.63.

Take “TTTGCAACATATAAAAGTACAAATAATATATTTATT [XGTACX_site890]”: the “gcPBM binding intensity (ln)” value stood at 9.45.

In the case of “ATAATAAATCATCATATTACATTTATCTTTGTTGGA [CACACA_negctrl_site849]”, the “gcPBM binding intensity (ln)” value came out at 9.48.

“TACTTATTTTTATAGCATTTCACGGAGGTAGTAATA [CACACA_negctrl_site468]”: the “gcPBM binding intensity (ln)” value worked out at 9.47.

In the case of “AACTGTAATTTTATACGTACATAAATAATATTATAT [XGTACX_site4277]”, the “gcPBM binding intensity (ln)” value stood at 9.54.

With “AGCAGTTTTTTTTTTTTTTTTTTTTTTATTAAAAGC [XGTACX_negctrl_site392]”, the “gcPBM binding intensity (ln)” value stood at 9.46.

Consider “TGTTTGATGGTACACGTACACACCTTGCAAATATTT [CACACA_site888]”, for which the “gcPBM binding intensity (ln)” value was 9.88.

For “AATATAAAATAGAAAAATGAAAAAAAAAAAAAGGGT [CACACA_negctrl_site1263]”, the “gcPBM binding intensity (ln)” value came to 9.99.

Take “TATATATATTTTAACACACACATATATATATTTATA [CACACA_site2765]”: the “gcPBM binding intensity (ln)” value is 10.1.

Consider “CAATAAATAATAAATACATGCAAGTATGAAGATATA [TGCATGCA_site859]”, for which the “gcPBM binding intensity (ln)” value amounted to 9.84.

As to “CATGTTATATATATATGTACTAAAAATATAATATAA [XGTACX_site1978]”, the “gcPBM binding intensity (ln)” value was 9.54.

Take “AGTGGGATTTTTAATTGTACATAAATAATATCATAA [XGTACX_site4163]”: the “gcPBM binding intensity (ln)” value worked out at 9.5.

As for “TTTTTTTTTTTTGGTAGTACATAAATATTTTATGGA [XGTACX_site6851]”, the “gcPBM binding intensity (ln)” value is 9.32.

Regarding “AATAAGAATTAAAAATGTACAAAAAAATGTATTTAT [XGTACX_site8005]”, the “gcPBM binding intensity (ln)” value turned out to be 9.65.

Turning to “AAGTATAAAATATTTTGTACTTAAAAAATTATATGG [XGTACX_site2180]”, the “gcPBM binding intensity (ln)” value is 9.5.

On to “AACAAATTTTTTATTAAACACACAAACATATATATA [CACACA_site8588]”, for which the “gcPBM binding intensity (ln)” value was found to be 9.8.

Consider “GCTCATTGAAATTATACACACCAAATATATAAATAT [CACACA_site5385]”, for which the “gcPBM binding intensity (ln)” value turned out to be 9.64.

On to “TGTGAATATATCTTTAAAAAGGATAAATAATAATTT [CACACA_negctrl_site507]”, for which the “gcPBM binding intensity (ln)” value was 9.5.

On to “AAAAAAAAAAAGATAAATACAAGTTACACAAAAAAA [GTGCAC_negctrl_site664]”, for which the “gcPBM binding intensity (ln)” value was determined as 9.64.

Turning to ACGTTGCGACGCAAGGTGCTTATTTTCTTATAAATA, the “gcPBM binding intensity (ln)” value stood at 9.33.

“ATATAAAATAAAAAAAAAAAAAAAAAAAAAAAAAAA [CACACA_negctrl_site1234]”: the “gcPBM binding intensity (ln)” value is 8.82.

Regarding “TTAATGTTTGAAAGAGTGCACATAACAAAAAAAAAA [GTGCAC_site9623]”, the “gcPBM binding intensity (ln)” value stood at 9.81.

Regarding “TTTTTGTATCCTTTTAATATTAAATAAAAGGAATGT [CACACA_negctrl_site1468]”, the “gcPBM binding intensity (ln)” value was determined as 9.42.

Take “TAATTAAAAAATGAATAAATGAATAAATAAATAAAT [CACACA_negctrl_site838]”: the “gcPBM binding intensity (ln)” value is 9.67.

As for “TATGAATATTGCATGTGTACCTATTATCCTTTTAAA [XGTACX_site4311]”, the “gcPBM binding intensity (ln)” value stood at 9.65.

For the origin of these results see the supplement of paper PMC11417369.
